# Results published in the supplement of paper PMC8728848.
# This is one part of the list.
# B1: Cohesin-marm-DC-ASGPR (protein)
# chain: LDITSHHHHHHDDLDAVRIKVDTVNAKPGDTVRIPVRFSGIPSKGIANCDFVYSYDPNVLEIIEIEPGDIIVDPNPDKSFDTAVYPDRKIIVFLFAEDSGTGAYAITKDGVFATIVAKVKEGAPNGLSVIKFVEVGGFANNDLVEQKTQFFDGGVNVGDTTEPATPTTPVTTPTTTDDLDAASSKFQRDLVTLRTDFSNFTSNTLAEIQALTSQGSSLQETIASLKAEVEGHKQELQAGASELQEHNKQKAHLGRCPHTCVCPSSFVCVPVHSEILLRVQQLVQDLNKLSCQVAILKNNATTERTCCPINWVEHQGSCYWFSRSGKTWPEAERYCQLENTHLVVINSREEQNFVQAHLGSAYTWMGLSDPEGVWKWVDGTDYSSGFQNWKPGQPDDWQGHGLGGGEDCAHFHPDGRWNDDVCQRSYHWVCEAGLTQASQDSHAS
# Experiments:
# Assay in all cases: glycan array binding signal (z-score within array); higher = stronger binding
# Conditions in all cases: glycan notation: IUPAC condensed, linker removed
# [1] = biological target: Neu5Ac(a2-3)Gal(b1-4)GlcNAc(b1-6)GalNAc
# In short: (§1)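 Columns mapping to the same glycan were averaged after glycan names were converted to IUPAC-condensed notation. The data come from 3228 arrays in the Consortium for Functional Glycomics database, limited to those with an available protein sequence. Binding is reported as a within-array Z-score averaged across arrays of one protein sequence and across linkers.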
# [2] = biological target: Neu5Ac(a2-3)Gal(b1-4)GlcNAc(b1-6)[Gal(b1-3)]GalNAc
# In short: as §1
# [3] = biological target: Neu5Ac(a2-3)Gal(b1-4)GlcNAc(b1-6)[Neu5Ac(a2-3)Gal(b1-3)]GalNAc
# In short: as §1
# [4] = biological target: Neu5Ac(a2-3)Gal(b1-4)GlcNAc6S
# In short: as §1
# [5] = biological target: Neu5Ac(a2-3)Gal(b1-4)[Fuc(a1-3)]GlcNAc
# In short: as §1
# [6] = biological target: Neu5Ac(a2-3)Gal(b1-4)[Fuc(a1-3)]GlcNAc(b1-2)Man
# In short: as §1
# [7] = biological target: Neu5Ac(a2-3)Gal(b1-4)[Fuc(a1-3)]GlcNAc(b1-3)Gal
# In short: as §1
# [8] = biological target: Neu5Ac(a2-3)Gal(b1-4)[Fuc(a1-3)]GlcNAc(b1-3)Gal(b1-4)GlcNAc
# In short: as §1
# [9] = biological target: Neu5Ac(a2-3)Gal(b1-4)[Fuc(a1-3)]GlcNAc(b1-3)Gal(b1-4)[Fuc(a1-3)]GlcNAc(b1-3)Gal(b1-4)[Fuc(a1-3)]GlcNAc
# In short: as §1
# [10] = biological target: Neu5Ac(a2-3)Gal(b1-4)[Fuc(a1-3)]GlcNAc(b1-3)GalNAc
# In short: as §1
# [11] = biological target: Neu5Ac(a2-3)Gal(b1-4)[Fuc(a1-3)]GlcNAc(b1-6)[Gal(b1-3)]GalNAc
# In short: as §1
# [12] = biological target: Neu5Ac(a2-3)Gal(b1-4)[Fuc(a1-3)]GlcNAc(b1-6)[Neu5Ac(a2-3)Gal(b1-3)]GalNAc
# In short: as §1
# [13] = biological target: Neu5Ac(a2-3)Gal(b1-4)[Fuc(a1-3)]GlcNAc6S
# In short: as §1
# [14] = biological target: Neu5Ac(a2-3)Gal6S(b1-4)GlcNAc
# In short: as §1
# [15] = biological target: Neu5Ac(a2-3)Gal6S(b1-4)[Fuc(a1-3)]GlcNAc
# In short: as §1
# Neu5Ac(a2-3)GalNAc = biological target: Neu5Ac(a2-3)GalNAc
# In short: as §1
# [16] = biological target: Neu5Ac(a2-3)GalNAc(b1-4)GlcNAc
# In short: as §1
# [17] = biological target: Neu5Ac(a2-3)[GalNAc(b1-4)]Gal(b1-4)Glc
# In short: as §1
# [18] = biological target: Neu5Ac(a2-3)[GalNAc(b1-4)]Gal(b1-4)GlcNAc
# In short: as §1
# [19] = biological target: Neu5Ac(a2-3)[GalNAc(b1-4)]Gal(b1-4)GlcNAc(b1-3)GalNAc
# In short: as §1
# [20] = biological target: Neu5Ac(a2-3)[Neu5Ac(a2-6)]GalNAc
# In short: as §1
# Neu5Ac(a2-6)Gal = biological target: Neu5Ac(a2-6)Gal
# In short: as §1
# [21] = biological target: Neu5Ac(a2-6)Gal(b1-3)GlcNAc(b1-3)[Gal(b1-4)GlcNAc(b1-6)]Gal(b1-4)Glc
# In short: as §1
# Neu5Ac(a2-6)Gal(b1-4)Glc = biological target: Neu5Ac(a2-6)Gal(b1-4)Glc
# In short: as §1
# [22] = biological target: Neu5Ac(a2-6)Gal(b1-4)GlcNAc
# In short: as §1
# [23] = biological target: Neu5Ac(a2-6)Gal(b1-4)GlcNAc(b1-2)Man
# In short: as §1
# [24] = biological target: Neu5Ac(a2-6)Gal(b1-4)GlcNAc(b1-2)Man(a1-3)Man(b1-4)GlcNAc(b1-4)GlcNAc
# In short: as §1
# [25] = biological target: Neu5Ac(a2-6)Gal(b1-4)GlcNAc(b1-2)Man(a1-3)[Gal(b1-4)GlcNAc(b1-2)Man(a1-6)]Man(b1-4)GlcNAc(b1-4)GlcNAc
# In short: as §1
# [26] = biological target: Neu5Ac(a2-6)Gal(b1-4)GlcNAc(b1-2)Man(a1-3)[GlcNAc(b1-2)Man(a1-6)]Man(b1-4)GlcNAc(b1-4)GlcNAc
# In short: as §1
# [27] = biological target: Neu5Ac(a2-6)Gal(b1-4)GlcNAc(b1-2)Man(a1-3)[GlcNAc(b1-4)][Neu5Ac(a2-6)Gal(b1-4)GlcNAc(b1-2)Man(a1-6)]Man(b1-4)GlcNAc(b1-4)GlcNAc
# In short: as §1
# [28] = biological target: Neu5Ac(a2-6)Gal(b1-4)GlcNAc(b1-2)Man(a1-3)[Man(a1-6)]Man(b1-4)GlcNAc(b1-4)GlcNAc
# In short: as §1
# [29] = biological target: Neu5Ac(a2-6)Gal(b1-4)GlcNAc(b1-2)Man(a1-3)[Neu5Ac(a2-3)Gal(b1-4)GlcNAc(b1-2)Man(a1-6)]Man(b1-4)GlcNAc(b1-4)GlcNAc
# In short: as §1
# [30] = biological target: Neu5Ac(a2-6)Gal(b1-4)GlcNAc(b1-2)Man(a1-3)[Neu5Ac(a2-6)Gal(b1-4)GlcNAc(b1-2)Man(a1-6)]Man(b1-4)GlcNAc(b1-4)GlcNAc
# In short: as §1
# [31] = biological target: Neu5Ac(a2-6)Gal(b1-4)GlcNAc(b1-2)Man(a1-3)[Neu5Ac(a2-6)Gal(b1-4)GlcNAc(b1-2)Man(a1-6)]Man(b1-4)GlcNAc(b1-4)[Fuc(a1-6)]GlcNAc
# In short: as §1
# [32] = biological target: Neu5Ac(a2-6)Gal(b1-4)GlcNAc(b1-2)Man(a1-6)Man(b1-4)GlcNAc(b1-4)GlcNAc
# In short: as §1
# [33] = biological target: Neu5Ac(a2-6)Gal(b1-4)GlcNAc(b1-2)Man(a1-6)[Gal(b1-4)GlcNAc(b1-2)Man(a1-3)]Man(b1-4)GlcNAc(b1-4)GlcNAc
# In short: as §1
# [34] = biological target: Neu5Ac(a2-6)Gal(b1-4)GlcNAc(b1-2)Man(a1-6)[GlcNAc(b1-2)Man(a1-3)]Man(b1-4)GlcNAc(b1-4)GlcNAc
# In short: as §1
# [35] = biological target: Neu5Ac(a2-6)Gal(b1-4)GlcNAc(b1-2)Man(a1-6)[Man(a1-3)]Man(b1-4)GlcNAc(b1-4)GlcNAc
# In short: as §1
# [36] = biological target: Neu5Ac(a2-6)Gal(b1-4)GlcNAc(b1-2)[Neu5Ac(a2-6)Gal(b1-4)GlcNAc(b1-4)]Man(a1-3)[GlcNAc(b1-4)][Neu5Ac(a2-6)Gal(b1-4)GlcNAc(b1-2)[Neu5Ac(a2-6)Gal(b1-4)GlcNAc(b1-6)]Man(a1-6)]Man(b1-4)GlcNAc(b1-4)GlcNAc
# In short: as §1
# [37] = biological target: Neu5Ac(a2-6)Gal(b1-4)GlcNAc(b1-2)[Neu5Ac(a2-6)Gal(b1-4)GlcNAc(b1-4)]Man(a1-3)[GlcNAc(b1-4)][Neu5Ac(a2-6)Gal(b1-4)GlcNAc(b1-4)Man(a1-6)]Man(b1-4)GlcNAc(b1-4)GlcNAc
# In short: as §1
# [38] = biological target: Neu5Ac(a2-6)Gal(b1-4)GlcNAc(b1-2)[Neu5Ac(a2-6)Gal(b1-4)GlcNAc(b1-6)]Man(a1-6)[Neu5Ac(a2-6)Gal(b1-4)GlcNAc(b1-2)Man(a1-3)][GlcNAc(b1-4)]Man(b1-4)GlcNAc(b1-4)GlcNAc
# In short: as §1
# [39] = biological target: Neu5Ac(a2-6)Gal(b1-4)GlcNAc(b1-3)Gal(b1-3)GlcNAc
# In short: as §1
# [40] = biological target: Neu5Ac(a2-6)Gal(b1-4)GlcNAc(b1-3)Gal(b1-4)GlcNAc
# In short: as §1
# [41] = biological target: Neu5Ac(a2-6)Gal(b1-4)GlcNAc(b1-3)Gal(b1-4)GlcNAc(b1-2)Man(a1-3)[Neu5Ac(a2-6)Gal(b1-4)GlcNAc(b1-3)Gal(b1-4)GlcNAc(b1-2)Man(a1-6)]GalNAc
# In short: as §1
# [42] = biological target: Neu5Ac(a2-6)Gal(b1-4)GlcNAc(b1-3)Gal(b1-4)GlcNAc(b1-3)Gal(b1-4)GlcNAc
# In short: as §1
# [43] = biological target: Neu5Ac(a2-6)Gal(b1-4)GlcNAc(b1-3)Gal(b1-4)GlcNAc(b1-3)Gal(b1-4)GlcNAc(b1-2)Man(a1-3)[Neu5Ac(a2-6)Gal(b1-4)GlcNAc(b1-3)Gal(b1-4)GlcNAc(b1-3)Gal(b1-4)GlcNAc(b1-2)Man(a1-6)]GalNAc
# In short: as §1
binder,measurement,setting,value
B1,glycan array binding signal (z-score),[1],4.81
same,glycan array binding signal (z-score),[2],-0.297
same,glycan array binding signal (z-score),[3],-0.303
same,glycan array binding signal (z-score),[4],-0.294
same,glycan array binding signal (z-score),[5],-0.304
same,glycan array binding signal (z-score),[6],-0.233
same,glycan array binding signal (z-score),[7],-0.311
same,glycan array binding signal (z-score),[8],-0.244
same,glycan array binding signal (z-score),[9],-0.29
same,glycan array binding signal (z-score),[10],-0.202
same,glycan array binding signal (z-score),[11],-0.307
same,glycan array binding signal (z-score),[12],-0.284
same,glycan array binding signal (z-score),[13],-0.297
same,glycan array binding signal (z-score),[14],-0.307
same,glycan array binding signal (z-score),[15],-0.303
same,glycan array binding signal (z-score),Neu5Ac(a2-3)GalNAc,-0.309
same,glycan array binding signal (z-score),[16],-0.308
same,glycan array binding signal (z-score),[17],2.04
same,glycan array binding signal (z-score),[18],-0.039
same,glycan array binding signal (z-score),[19],-0.229
same,glycan array binding signal (z-score),[20],-0.249
same,glycan array binding signal (z-score),Neu5Ac(a2-6)Gal,-0.306
same,glycan array binding signal (z-score),[21],-0.293
same,glycan array binding signal (z-score),Neu5Ac(a2-6)Gal(b1-4)Glc,-0.303
same,glycan array binding signal (z-score),[22],-0.287
same,glycan array binding signal (z-score),[23],-0.288
same,glycan array binding signal (z-score),[24],-0.31
same,glycan array binding signal (z-score),[25],-0.175
same,glycan array binding signal (z-score),[26],-0.312
same,glycan array binding signal (z-score),[27],-0.308
same,glycan array binding signal (z-score),[28],-0.309
same,glycan array binding signal (z-score),[29],-0.295
same,glycan array binding signal (z-score),[30],-0.126
same,glycan array binding signal (z-score),[31],-0.299
same,glycan array binding signal (z-score),[32],-0.313
same,glycan array binding signal (z-score),[33],-0.303
same,glycan array binding signal (z-score),[34],-0.304
same,glycan array binding signal (z-score),[35],-0.314
same,glycan array binding signal (z-score),[36],-0.301
same,glycan array binding signal (z-score),[37],-0.239
same,glycan array binding signal (z-score),[38],-0.31
same,glycan array binding signal (z-score),[39],-0.302
same,glycan array binding signal (z-score),[40],-0.289
same,glycan array binding signal (z-score),[41],-0.285
same,glycan array binding signal (z-score),[42],-0.293
same,glycan array binding signal (z-score),[43],-0.208
